Results from the supplement of paper PMC11417369.
This is one part of the list.

Tested on: PF3D7_0420300 AP2 domain 1 (GST-tagged)
Assay: gcPBM binding intensity (ln(normalized median fluorescence intensity)); higher = stronger DNA binding
Summary of the method: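 Binding of GST-tagged P. falciparum DNA-binding domains, expressed in E. coli and used at about 25 μg on average, was carried out for 1 h in 1× PBS containing 1% milk, 0.2 mg/ml BSA, 0.5% salmon testes DNA and 0.03% Triton X-100. The target was an Agilent 4 × 180k array of primer-extended double-stranded 36-bp intergenic genomic probes plus negative controls, read with Alexa488 anti-GST antibody at 488 nm. Binding intensity is the highest Masliner-normalised natural-log median intensity across replicate spots of either probe orientation.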

Sequence | gcPBM binding intensity (ln)
ATATTTTAAAATAATACACACAAAATGATTCTTAAT [CACACA_site2930] | 9.55
ATAAGTATTACTAGTACACACAAGTTGTTAATCCTT [CACACA_site3324] | 9.61
TATATTATATAATTTTAACACACAAGAATATAAACT [CACACA_site8378] | 9.73
TATTTAAAATAATAACAAAATTAACATAAATATATA [GTGCAC_negctrl_site472] | 9.16
AATATGTTTTACGTCTCACACATATAGGTTTATATT [CACACA_site4713] | 9.5
CATAAATACAAATATACACACATATTTATATTTATA [CACACA_site7277] | 9.54
ATATATAGATGTGAATTATTTATATTATCTATTCTT [CACACA_negctrl_site518] | 9.25
ATTATACTTTCCATTCGTACATATATAAATAAATAA [XGTACX_site6245] | 9.28
AAAAAGAACACAAAAAGTACAAAAATTATAATGATA [XGTACX_site2676] | 9.61
AAACTTCAAAAAGAGCACTTGAATTTTTTTTTTTTT [TGCATGCA_negctrl_site133] | 8.9
ATATTATATCTAATCGTGCACAACTGTACATTTGTC | 9.29
CCCATGTAATATTAAACACACACTCATATAACACAA [CACACA_site7906] | 9.71
TTGTATCATATATTATGTACATATTTATTTATTATC [XGTACX_site7723] | 9.24
CAAAATATTTAAAAAAGTACTTAAAATAAATTCAAA [XGTACX_site6866] | 9.06
ATATTTAAATATATTTATATATATAAAAAAAAATAT [GTGCAC_negctrl_site312] | 9.11
CACACAACTATCAAGGTGCTAAAATGAAATAATATA [GTGCAC_site9871] | 9.08
AAAAAAATAAAAAATATATAAATAATTAATACATGT [GTGCAC_negctrl_site633] | 9.36
AATATAAATAAAAACACACACACACGGATATTTATA [CACACA_site7134] | 10.3
AAGGTGGGAAAAAATAGTACACAACAAAAATGTATG [XGTACX_site8741] | 9.38
ATATATCTATATGTGTGTACATATAAGTATTTATAT [XGTACX_site5333] | 9.41
ACATATAAACTGTATACACACAAATATTGCATATAT [CACACA_site6804] | 9.62
TACATTCTAAATATTACACACTTTATAAAATAATAA [CACACA_site4069] | 9.1

Sequence | gcPBM binding intensity (ln)
ATATATATAAATATATGTACTAATATATACATATAT [XGTACX_site2289] | 9.07
AGAAAAGAGAAATGGGCACACACACCCATATTATAT [CACACA_site8433] | 9.66
TATATATAAAAAACATGTACACAAATTTACATACAT [XGTACX_site4777] | 9.53
TCACTAAACCATTAGAGTACTTGACATATAATGAGC [XGTACX_site3272] | 9.05
AAGAGTTAAAAAAATACACACATATATATTTTTTTA [CACACA_site1980] | 9.38
GATTATATATGAAAATGTACAAATATATATATATAT [XGTACX_site5963] | 9.2
AAAAAAAAAAAAAAAAAAAAAAAAAAATACATATGT [XGTACX_negctrl_site95] | 9.38
TTTTTGTATGCTTCCCGACTACATTATGCCATAAAT [CACACA_negctrl_site136] | 9.43
AAACCAAGGCACAATAATTAAATAAATAAAATCATG [GTGCAC_negctrl_site574] | 9.19
ATTTATATATATATAGGTACACATATTTATATATAA [XGTACX_site8487] | 9.17
ATATAATTTTTCAAGTGTACTTTTTTTTTTTAACAT [XGTACX_site3050] | 9.27
TCATTCATATGTTACACACACACACCCACATAAAAA [CACACA_site3245] | 10.1
TTTATATGATATATTACACACAAAAAAAAAAAAAAA [CACACA_site3549] | 9.26
CTCTTCTATATATAAGCATGCATTCATAATAATTTA [TGCATGCA_site679] | 9.21
TAGATACTTGTCATGGGTACATATCGTACCTTTTGG [XGTACX_site6781] | 9.03
CTTAAAAAAACCTTAACACACATAAACTCTAATTTA [CACACA_site7430] | 9.34
GTTTACATTAAAAATTGTACTCTGTATGAATAATAT [XGTACX_site80] | 9.1
ATTTCATTTTATAAGTGTACAATAAAAAAAAAAAAA [XGTACX_site8677] | 8.94
AAATTTGATATAAAAAGTACAAAATGTTCCTCAGCT [XGTACX_site809] | 9.21
ATATAAACAGAAAATAGTACTTTATATTGAAAAAAA [XGTACX_site7183] | 9.25
GATGATACAAAGTAATGTACATAAATACACATATTG [XGTACX_site3177] | 9.24
CATTATGTCGTAAATACACACATACCTATACATACA [CACACA_site6763] | 9.57

Sequence | gcPBM binding intensity (ln)
TATACACATATATAAACACACAAAAAAAAAAAAAAA [CACACA_site7041] | 9.38
CCATAAGATATATGTAGTACATATTATATATATATA [XGTACX_site2104] | 9.13
AATATATAGCTAAAAACACACAAATATATACGCATA [CACACA_site3608] | 9.69
AAAATATATACACAAACATGCATATAATAAATAAAT [TGCATGCA_site711] | 9.48
ATATTTCTGTGTGGATGTACATTATTAGCAGGCTTT [XGTACX_site6496] | 9.28
TTCTTTTTATTTATATTTTCCCCTCTCTATAGCTAT [XGTACX_negctrl_site102] | 9.38
CAAAATAATAATAAAAGTACTAACATATTTATGAAA [XGTACX_site6078] | 9.29
ATAATTCAAAAAAACACACAAATTACAAAATAAACT [CACACA_site6264] | 9.91
GATAATTTTTTTCTCACACACAAATATTTTAATCAT [CACACA_site3666] | 9.69
AAATATATTATATCATATATTAAAGCATATATTAAA [CACACA_negctrl_site1624] | 9.03
AAAAAAAAAAAACACACACACACACCGACACATACA [CACACA_site5576] | 10.2
GAATATTCACATACTTGTACATATATATATATATAT [XGTACX_site7302] | 9.36
AGGTAAAAATGGTAAGTGCATTAATGATAAAAAATG | 9.64
TAATAATAGTACTGACATCGAAATATTATTAAAAAT [CACACA_negctrl_site255] | 9.11
GTTTACATAGATAACTGTACGCAATGATATTAGACA [XGTACX_site1320] | 9.18
TATAAGAATAAAAAGGGTACATAAAATAATAATATA [XGTACX_site2355] | 9.55
ATATTTTGGGGACTTTTTAAAAAAGAAGTATTAAAA [CACACA_negctrl_site1228] | 8.8
TGGCAAAATAGGCACACACACATATACCTATAGATT [CACACA_site7168] | 9.9
GTAAATATATAAACATGTACATATATAAATATATAA [XGTACX_site7262] | 9.27
AATTTTTCAAATTAATGTACTTGTTATAAATTGTAA [XGTACX_site5428] | 9.01
TTGTTTCTTTTTTTTTGTACATATATATTGTATATT [XGTACX_site7602] | 9.56
GGACAACAAACAAACACACACAAAAAAAAAATAAAA [CACACA_site3791] | 9.84

Sequence | gcPBM binding intensity (ln)
TACGTATTTTAATATTTACACACTTATTTTTTATAT [CACACA_site7924] | 9.71
TATATCTGTTTATATTGTACACATATATATATATAT [XGTACX_site714] | 9.36
GGCAATACATAATAATGTACATAATTATATAATATT [XGTACX_site3739] | 9.24
TACAAACACCCATATACACACAAAAAAAAAATAAAA [CACACA_site5421] | 9.55
AGAAAAACTTATATGATACACACGATAAACAAAATA [CACACA_site1038] | 9.59
TATATAATATATATATGTACATATATATATGTTTTT [XGTACX_site3347] | 9.18
TATACATAAAACAGTTCACACATTGTATGAATATAT [CACACA_site4751] | 9.47
ATTAATTTTAATAAAGGTACACGTAGTTTTTTATTA [XGTACX_site7868] | 9.02
TTAAAATTAAAAATGCGTACACATATACATAAAAAA [XGTACX_site1915] | 9.27
TATATATATATATATTGTACTGAACGTTTTTTTTTG [XGTACX_site8060] | 9.31
AACAAAACCTTATATGTACACACATATACATCACAC [CACACA_site9037] | 9.8
ACAGCTACCAGATACTGTACTTTTCTCCAGACTGCA [XGTACX_site2541] | 9.07
AATTTATAATTATAGAGTACATATTTTTAATATATA [XGTACX_site2566] | 9.08
GTAATAATTTTTTGTAGTACACAAAAATTCATATTT [XGTACX_site2699] | 9.11
ATATACACTTAATTTTTTATAAAAAAAAATTTATAT [CACACA_negctrl_site498] | 8.95
ATATACATAATCTTCTTGCACTTTTTTTTTTTTTTT [GTGCAC_site9410] | 9.6
ATGTGATATAAGTACACACACATATGTATTTATAAC [CACACA_site6942] | 9.73
TAAATATATTAATACACACACGATATGTACAAAAAA [CACACA_site540] | 9.82
TGCATATACGCAAGCACACATATATATATATATATA [CACACA_site1069] | 9.17
TTTTGATTTCCTATTGCACACTTTTTTTAAGTTTAT [CACACA_site1056] | 9.56
TATATATATATATAATGTACATATAATATATTTATT [XGTACX_site7892] | 9.08
GCTTAATGTCATATATCACACATGAAAATATATATA [CACACA_site5089] | 9.28
